B1: ENSG00000125968:stop:overlap|stop_codon|ENSG00000125968|stop_codon|NA|stop_codon (ssRNA)
RNA: GGGAGUUCUACAGUCCGACGAUCGCACCCUCAACGGCGAGAUCAGCGCCCUGACGGCCGAGGUGAGAUCCAGAUCCGACCACUAGAUCAUCCUUAUACCGACGGGGAAACGGAGGCCAGAGAGGGCGUGGGCGCUUGCACCACCAACAGAGGAUUGAGCAUCA
B2: chr4:140153917:140154018:-|5pUTR|ENSG00000196782|msi1|FALSE|bound_elsewhere (ssRNA)
RNA: GGGAGUUCUACAGUCCGACGAUCUUUGCAGUCGCCUCGGACUGUCCAUGUGUUUACUUCCCCCAGCCCGAGGAUUCGAUAUCUAGGUUCCUGUGAAAUGCAACUGAGCAGCCAAAGUACUUUGAGAACACGGGGCGGCAUAAACAACAGAGGAUUGAGCAUCA
B3: ENSG00000136451:be:win_3751|3pUTR|ENSG00000136451|bound_else_gene|NA|bound_elsewhere_windowed (ssRNA)
RNA: GGGAGUUCUACAGUCCGACGAUCCUCCACAGUGGUCCAAGGAGCAGUCCUCAGUGGGGGCAGGUGUGGGCCCUACCCCUAAGCUAGAAUGUGGUUGUCAGAACCCUGAAAGUAUUAGUUCUAAAAAAAAAAAGAUAUAUACUACAACAGAGGAUUGAGCAUCA
B4: chr15:78897113:78897311:+|3pUTR|ENSG00000185787|unk|FALSE|unique (ssRNA)
RNA: GGGAGUUCUACAGUCCGACGAUCUAACAAUUGAUGUUUGUUUUCUGUUUGAUUUUAAACAGAGAAAAAAUAAAAGGGGGUAAUAGCUCCUUUUUUCUUCUUUCUUUUUUUUUUUCAUUUCAAAAUUGCUGCCAGUGUUUUCAACAACAGAGGAUUGAGCAUCA
B5: chr13:113500007:113500108:+|CDS|ENSG00000150403|unk|total|mutant (ssRNA)
RNA: GGGAGUUCUACAGUCCGACGAUCGAAGAGGCCAAUUCUAAGCAAAAUAUAACAAAACGAGAAGUGGAGGAUGACUUGGGUCUCCGCAUGCUGAUUGACUCCCAGAACAACCAGUAUAUUUUGACCAAGCCCAGAGAUUCAACCCAACAGAGGAUUGAGCAUCA
B6: chr8:96333981:96334082:+|3pUTR|ENSG00000156471|msi1|total|mutant (ssRNA)
RNA: GGGAGUUCUACAGUCCGACGAUCUUAAGUUCAGGCCACUUUUCUGUCUUUUAUUUGGUUACUGUUGUUAUUUGUUUUUAAGUCCGGAUGCUUUUUAACAGCCUUCCGAAGCCGCUGCUGAAAUUGAUACUGGGGGAAGGGUUCCAACAGAGGAUUGAGCAUCA
B7: chr2:73730642:73730743:-|CDS|ENSG00000144034|unk|total|mutant (ssRNA)
RNA: GGGAGUUCUACAGUCCGACGAUCUUCAGACGCCGGAAACAAUGGUUAAUGAUCUUGUGUUUUUUUUUUCAUUUUUUUUCUCUCCGAUUUCAGAGGCUUUGAAAAAAUUUGGUAUCUCAGCAAAUGACACUUCAAUUCUAAUUGCAACAGAGGAUUGAGCAUCA
B8: chr1:93353930:93354034:+|CDS|ENSG00000117505|unk|total|mutant (ssRNA)
RNA: GGGAGUUCUACAGUCCGACGAUCUUUGGGAUUUGGCUCUUACAUCAGUGAAGUAAAAGAAGUCUUGCAAGAGUGUAAAACAGCCGCAUUAAAAAGAAGAAAGGCCAGUUCUCGUUUGGAAAACCUUGGCAUUCCUGAAGAAGACAACAGAGGAUUGAGCAUCA
B9: chr2:167954955:167954998:-|3pUTR|ENSG00000198648|msi1_unk|total|mutant (ssRNA)
RNA: GGGAGUUCUACAGUCCGACGAUCGUUGUAUUCCGAAAUUAAUAUACUUAUAAAAUUAAGAUUUAUCCGCCAAACUUGAAUUCCCGUUUUAAAACUGACUGUGAAUUUUAUUUUUCAUAUAUUUAUGCAUUACACACCUCCGCUCAACAGAGGAUUGAGCAUCA
B10: chr1:150647640:150647741:-|3pUTR|ENSG00000143457|unk|total|mutant (ssRNA)
RNA: GGGAGUUCUACAGUCCGACGAUCAGAUUCAAUUACCUGGAUGUCAAAGUCCCCGAGCCAGAAAUAUAUUCUCUCAUCCCUCUCCGCAUUCUCUUGCUCCCUCAUUCACCCGGGCAAAUGUCUAAAUGAAGAAAAGUCUCUCUCCAACAGAGGAUUGAGCAUCA
B11: chr5:103210461:103210562:+|3pUTR|ENSG00000145725|unk|FALSE|unique (ssRNA)
RNA: GGGAGUUCUACAGUCCGACGAUCGAAUAAGGAGCUGGGAGAAAGGAGACCUGGGUAUUAAUCUCAGCUCUACCACUACAUGGUAGAGCUAUGUAGUGGUAGACUAUCUGGGAGACUCUAGAAUCUUUACCAUUCCCUCUACUACAACAGAGGAUUGAGCAUCA
B12: ENSG00000136451:be:win_151|CDS|ENSG00000136451|bound_else_gene|NA|bound_elsewhere_windowed (ssRNA)
RNA: GGGAGUUCUACAGUCCGACGAUCAAACCUCAGGGUGCACCAGAAACAUUAAAGGAUGCCAUUGGGAUUAAAAAAGAAAAACCCAAAACUUCAUUUGUGUGCACUUACUGCAGUAAAGCUUUCAGGGACAGCUAUCACCUGAGGCAACAGAGGAUUGAGCAUCA
B13: ENSG00000044524:stop:overlap|stop_codon|ENSG00000044524|stop_codon|NA|stop_codon (ssRNA)
RNA: GGGAGUUCUACAGUCCGACGAUCACAGCCGCAAGUUUGAGUUUGAAACUAGUCCAGACUGUAUGUAUUAUUUCAAUGCAGUCUAGAGGAGGGGGCAGGGAUCUUGCAAAAGAUGUCUGAUCGUUUAUUCUCACUGUUUCUAAGCAACAGAGGAUUGAGCAUCA
B14: chr14:49622334:49622435:+|CDS|ENSG00000168282|unk|total|mutant (ssRNA)
RNA: GGGAGUUCUACAGUCCGACGAUCCAAUACUUGACUGUAUCUUGUCUUCCAAAAUUCUGGAAAGUGCUGGUUCCUCAAAUUCCCCGGAUCUUUCAUGCUGGAGACUGUGGUAUGCAUCACAAGAAAACCUGCCGACCAUCCACUCAACAGAGGAUUGAGCAUCA
B15: chrX:71240429:71240530:-|3pUTR|ENSG00000147130|msi1|total|mutant (ssRNA)
RNA: GGGAGUUCUACAGUCCGACGAUCGGCUUUGGGUUUCCUGACCCAUCCCGCACCGGCCGAGCCUCUUGUUCCCCGGCAUGACCCCGGGAAAAACCCAGCUGCCUUCUCUGCCCUGUGCCCACUCCCUUCUCUACUCUUCCCCAGCAACAGAGGAUUGAGCAUCA
B16: chr1:212100457:212100572:+|CDS|ENSG00000143476|unk|FALSE|unique (ssRNA)
RNA: GGGAGUUCUACAGUCCGACGAUCAGAAGAGGCUCUGUCUCCUCCGUCUCUCCCAAGCCACCUUCAUCUUUCAAGAUGUCGAUUAGAAACUGGGUGACCCGAACACCUUCCUCAUCACCACCCAUCACUCCACCUGCUUCGGAGCAACAGAGGAUUGAGCAUCA
B17: chr22:19969400:19969501:+|3pUTR|ENSG00000093010|msi1|total|mutant (ssRNA)
RNA: GGGAGUUCUACAGUCCGACGAUCUCCCCACUGGGCCUUGCUUACAGAAGAGGCAAUGGCUCAGACCAGCUCCCGCAUCCCUGCCGUUGCCUCCCUGGCCCAUGAGUGAGGAUGCAGUGCUGGUUUCUGCCCACCUACACCCCGCAACAGAGGAUUGAGCAUCA
B18: chr19:39539560:39539696:-|CDS|ENSG00000176396|unk|total|mutant (ssRNA)
RNA: GGGAGUUCUACAGUCCGACGAUCCGGGAACGGAGGCCUGGCUGCGUUGCCCUAUCUCCGUCUCCGCCACCCACUCCGCGUUUCCGGCAUCAAUUACCAGCAGUUUCUCCGCCACUAUCUGGAAAAUUACCCGAUUGCUCCCGGCAACAGAGGAUUGAGCAUCA
B19: chr1:21217244:21217432:-|3pUTR|ENSG00000117298|msi1|total|mutant (ssRNA)
RNA: GGGAGUUCUACAGUCCGACGAUCCCGCUCCAGAGCUUUAAGGAAAAUGAAGUGAGACCCCUCCCCUCCGGCCUGGGGAGCCACCGGGCUGGCUUCUCUGUGGGUGCGUGGACGUGGGGUUGGGAGCUGGGAAUCUAUUUUUUGCAACAGAGGAUUGAGCAUCA
B20: chr9:14722165:14722672:-|CDS|ENSG00000147869|control|control|control (ssRNA)
RNA: GGGAGUUCUACAGUCCGACGAUCAUCCAGGGACUCAGAUAGUGAGCCCUUCCCACCUGGGACCCAGUCCCUCAUCCAGCCGAUAGAUGGAAUGAAAAUGGAGAAAUCUCCUCUUCGGGAAGAAGCCAAGAAAUUCUGGCACCACAACAGAGGAUUGAGCAUCA
B21: chr1:100520103:100520216:+|3pUTR|ENSG00000079335|unk|total|mutant (ssRNA)
RNA: GGGAGUUCUACAGUCCGACGAUCUUACACAUGUGCCUACACCGACACACCAAGAAGUGGAUGUAUAUAAUACCGAAAGUAUACCGCAAAGUAAUUUUACUCUGAUAAUAAAAAUUGUUUGACAUGUAUUUUGUUAUGAACCGUCAACAGAGGAUUGAGCAUCA
B22: chr2:73730642:73730743:-|CDS|ENSG00000144034|unk|FALSE|unique (ssRNA)
RNA: B7 RNA with C32U, C33A, C83U, C84A

Where a chain is given by its changes, count along the chain named. The list shows a part of the results.

In this experiment the target is MSI1 full-length (mouse, UniProt Q61474 1-362). The experiment in a line: nsRBNS (natural sequence RNA bind-n-seq); RBNS binding buffer (assumed for nsRBNS): 25 mM Tris pH 7.5, 150 mM KCl, 3 mM MgCl2, 0.01% Triton X-100, 500 ug/ml BSA, 20 U/ml SUPERase-In, 4 C; UNK is unkempt and MSI1 is Musashi-1; names of the RNAs are library labels; protein concentration not given here; high values mean tight binding.
Chain of UniProt Q61474 (Q61474 whole entry): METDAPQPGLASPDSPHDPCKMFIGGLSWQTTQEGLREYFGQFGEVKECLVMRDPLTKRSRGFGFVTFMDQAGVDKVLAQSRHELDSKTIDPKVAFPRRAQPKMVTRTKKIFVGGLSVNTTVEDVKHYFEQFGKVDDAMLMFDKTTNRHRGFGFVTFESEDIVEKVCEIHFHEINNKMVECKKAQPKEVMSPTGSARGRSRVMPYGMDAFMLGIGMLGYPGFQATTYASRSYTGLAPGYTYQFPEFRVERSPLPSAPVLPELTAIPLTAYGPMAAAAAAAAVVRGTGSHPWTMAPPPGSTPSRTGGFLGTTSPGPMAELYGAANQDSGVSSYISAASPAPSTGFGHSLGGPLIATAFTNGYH
In turn, B1 had a binding signal of 0.504 enrichment R.
As to B2, the binding signal stood at 0.362 enrichment R.
In the case of B3, the binding signal worked out at 1.89 enrichment R.
Next, B4: 0.501 enrichment R; B5: 0.507 enrichment R; B6: 0.724 enrichment R.
Molecule B7 yielded a binding signal of 0.259 enrichment R.
Next, B8: 0.365 enrichment R.
In turn, B9 had a binding signal of 3.64 enrichment R.
For B10, the binding signal was determined as 0.728 enrichment R.
Next, B11: 0.914 enrichment R.
Next, B12: 0.372 enrichment R.
Molecule B13 showed a binding signal of 1.31 enrichment R.
Next, B14: 0.329 enrichment R.
Next, B15: 0.722 enrichment R; B16: 0.509 enrichment R.
Next, B17: 0.313 enrichment R; B18: 0.469 enrichment R; B19: 0.421 enrichment R.
B20 showed a binding signal of 1.14 enrichment R.
Next, B21: 0.652 enrichment R; B22: 0.897 enrichment R.

The record behind these values is article PMC12136788.
